Reference: PubChem BioAssay AID1851 (National Center for Advancing Translational Sciences (NCATS), 2009)
The list shows a part of the results, in another mix than the full data. Records with an inconclusive call do not appear. Activity calls are given as the source filed them. Calls follow the shape of the dose curve; as a rule, active = well fitted curve in the direction sought with a large enough effect; inconclusive = small, poorly fitted or top-dose-only effect, or effect the other way; inactive = no such curve, though single readings can be large or run the other way.

target: Cytochrome P450 2C9 (Homo sapiens) (UniProt P11712); assay: Cytochrome panel assay with activity outcomes; conditions: recombinant CYP, pro-luciferin dealkylation, luminescence, p450-cyp2c9; series mostly up to 25.6 µM; activity, negative = inhibition: at the top concentration
% is scaled to controls: 0 for no effect and ±100 for the full control effect.

UniProt P11712, sequence (P11712 whole entry, looked up): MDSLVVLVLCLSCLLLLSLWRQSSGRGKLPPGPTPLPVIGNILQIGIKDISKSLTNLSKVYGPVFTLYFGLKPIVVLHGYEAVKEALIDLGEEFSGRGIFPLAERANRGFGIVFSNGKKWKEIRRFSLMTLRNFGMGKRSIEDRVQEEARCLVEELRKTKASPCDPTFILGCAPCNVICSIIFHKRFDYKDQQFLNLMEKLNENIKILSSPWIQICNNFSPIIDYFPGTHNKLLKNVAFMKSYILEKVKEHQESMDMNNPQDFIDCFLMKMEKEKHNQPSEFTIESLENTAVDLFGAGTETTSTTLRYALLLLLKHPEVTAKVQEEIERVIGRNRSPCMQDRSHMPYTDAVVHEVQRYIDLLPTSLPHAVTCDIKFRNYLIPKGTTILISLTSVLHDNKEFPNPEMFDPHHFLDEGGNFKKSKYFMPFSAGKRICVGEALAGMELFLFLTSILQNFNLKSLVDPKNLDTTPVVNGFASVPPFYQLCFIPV

Structure (SMILES) | activity, negative = inhibition | AC50
Nc1nc2ccc(OC(F)(F)F)cc2s1 | inactive: -10.2% | 
O=S(=O)(c1ccccc1)N1CCN(S(=O)(=O)c2ccccc2)c2ccccc21 |  | active: 0.251 µM
CC[C@](C)(CN(C)C)OC(=O)c1ccccc1 | inactive: 9.77% | 
C[C@@H]1C[C@H]2[C@@H]3C[C@H](F)C4=CC(=O)C=C[C@@]4(C)[C@]3(F)[C@H](O)C[C@]2(C)[C@@]1(O)C(=O)CO | inactive: -11.7% | 
CCOc1cc(/C=N/n2cnnc2)ccc1OC(=O)c1cccc([N+](=O)[O-])c1 |  | active: 14.1 µM
Cc1ccc(OCCNC(=O)/C=C/c2ccc([N+](=O)[O-])cc2)cc1C | inactive: 2.87% [at 57.1 µM] | 
COC(=O)C1=C(C(=O)OC)C(c2cc(Cl)ccc2O)c2sc(=O)[nH]c2S1 (configuration not stated) |  | active: 4.47 µM
